Results taken from the supplement of paper PMC4967469.
Lines with a small IC50 respond at low doses; a limit (>, <) means that the fit lies beyond the doses tested. AUC, from the same fit, is the share of area under the viability curve across the 256-fold dose range; the more sensitive the line, the further below 1. An inferred top dose was calculated from the reported fits.

What was measured:
Experiment in all cases: Viability of human cancer cell lines after 72 h of drug (GDSC screen)
PFI-1 = compound: COc1ccccc1S(=O)(=O)Nc1ccc2c(c1)CN(C)C(=O)N2 [PFI-1]; conditions: top dose 10 µM; top dose inferred
Description: (§1)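 Human cancer cell lines in 384-well plates, medium with 10% serum, drug for 72 h over a 256-fold dose range (nine 2-fold or five 4-fold steps up to the top dose). Adherent lines were fixed and stained with the nucleic acid dye Syto60, suspension lines read with resazurin; signal relative to control wells, capped at 0 and 100%. One two-parameter sigmoid per drug and line, fitted in a mixed model over all curves with the slope shared within a line.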

Tipifarnib = compound: Cn1cncc1[C@@](N)(c1ccc(Cl)cc1)c1ccc2c(c1)c(-c1cccc(Cl)c1)cc(=O)n2C [Tipifarnib]; conditions: top dose 16 µM; top dose inferred
Description: as §1

BMS-509744 = compound: COc1cc(C)c(Sc2cnc(NC(=O)c3ccc(CNC(C)C(C)(C)C)cc3)s2)cc1C(=O)N1CCN(C(C)=O)CC1 [BMS-509744]; conditions: top dose 10.24 µM; top dose inferred
Description: as §1

NG-25 = compound: CCN1CCN(Cc2ccc(NC(=O)c3ccc(C)c(Oc4ccnc5[nH]ccc45)c3)cc2C(F)(F)F)CC1 [NG-25]; conditions: top dose 10.24 µM; top dose inferred
Description: as §1

GSK-1904529A = compound: CCc1cc(Nc2nccc(-c3c(-c4ccc(OC)c(C(=O)Nc5c(F)cccc5F)c4)nc4ccccn34)n2)c(OC)cc1N1CCC(N2CCN(S(C)(=O)=O)CC2)CC1 [GSK-1904529A]; conditions: top dose 1.024 µM; top dose inferred
Description: as §1

Cell Line | AUC (PFI-1) | IC50 (PFI-1) [µM] | AUC (Tipifarnib) | IC50 (Tipifarnib) [µM] | AUC (BMS-509744) | IC50 (BMS-509744) [µM] | AUC (NG-25) | IC50 (NG-25) [µM] | AUC (GSK-1904529A) | IC50 (GSK-1904529A) [µM]
MV-4-11 (leukaemia, suspension) | 0.609 | 1.17 | 0.424 | 0.647 | 0.859 | 6.17 | 0.375 | 0.31 | 0.982 | > 1.02
NEC8 (testis, adherent) | 0.821 | 4.67 | 0.881 | 12.4 | 0.986 | > 10.2 | 0.886 | 8.32 | 0.99 | > 1.02
697 (lymphoblastic leukaemia, suspension) | 0.681 | 1.78 | 0.523 | 1.14 | 0.833 | 4.85 | 0.553 | 0.867 | 0.988 | > 1.02
U-87-MG (glioma, adherent) | 0.901 | > 10 | 0.97 | > 16 | 0.958 | > 10.2 | 0.882 | > 10.2 | 0.985 | > 1.02
KM-H2 (Hodgkin lymphoma, suspension) | 0.993 | > 10 | 0.827 | 7.86 | 0.938 | > 10.2 | 0.848 | 5.93 | 0.992 | > 1.02
MDST8 (large intestine, adherent) | 0.918 | > 10 | 0.828 | 9.73 | 0.957 | > 10.2 | 0.964 | > 10.2 | 0.988 | > 1.02
A388 (skin, adherent) | 0.876 | > 10 | 0.483 | 0.896 | 0.937 | > 10.2 | 0.928 | > 10.2 | 0.972 | > 1.02
SNU-C2B (large intestine, adherent) | 0.924 | > 10 | 0.701 | 4.45 | 0.767 | 5.04 | 0.921 | > 10.2 | 0.966 | > 1.02
NCI-H1838 (lung adenocarcinoma, adherent) | 0.924 | > 10 | 0.983 | > 16 | 0.951 | > 10.2 | 0.965 | > 10.2 | 0.984 | > 1.02
DSH1 (bladder, adherent) | 0.954 | > 10 | 0.788 | 6.71 | 0.974 | > 10.2 | 0.979 | > 10.2 | 0.966 | > 1.02
EW-18 (Ewing sarcoma, suspension) | 0.965 | > 10 | 0.413 | 0.566 | 0.973 | > 10.2 | 0.776 | 4.38 | 0.985 | > 1.02
GT3TKB (stomach, adherent) | 0.73 | 2.56 | 0.628 | 2.14 | 0.929 | > 10.2 | 0.973 | > 10.2 | 0.988 | > 1.02
DU-4475 (breast, suspension) | 0.956 | > 10 | 0.62 | 2 | 0.946 | > 10.2 | 0.89 | 8.01 | 0.989 | > 1.02
LOXIMVI (melanoma, semi-adherent) | 0.845 | 6.08 | 0.942 | > 16 | 0.948 | > 10.2 | 0.958 | > 10.2 | 0.935 | > 1.02
NB69 (neuroblastoma, adherent) | 0.667 | 1.72 | 0.916 | > 16 | 0.814 | 4.81 | 0.806 | 4.51 | 0.988 | > 1.02
ATN-1 (T-cell lymphoblastic leukaemia, suspension) | 0.915 | > 10 | 0.652 | 2.56 | 0.817 | 5.25 | 0.878 | 9.25 | 0.985 | > 1.02
SK-MEL-1 (melanoma, suspension) | 0.958 | > 10 | 0.993 | > 16 | 0.972 | > 10.2 | 0.931 | > 10.2 | 0.993 | > 1.02
NU-DUL-1 (B-cell lymphoma, suspension) | 0.913 | 9.49 | 0.805 | 6.27 | 0.903 | 8.78 | 0.223 | 0.123 | 0.988 | > 1.02
NCI-H1355 (lung adenocarcinoma, adherent) | 0.898 | > 10 | 0.422 | 0.556 | 0.782 | 6.48 | 0.976 | > 10.2 | 0.964 | > 1.02
YT (lymphoid neoplasm, suspension) | 0.973 | > 10 | 0.559 | 1.41 | 0.935 | > 10.2 | 0.671 | 1.76 | 0.989 | > 1.02
A101D (melanoma, adherent) | 0.748 | 3.86 | 0.596 | 1.95 | 0.802 | 6.46 | 0.924 | > 10.2 | 0.951 | > 1.02
LU-139 (small cell lung carcinoma, suspension) | 0.892 | > 10 | 0.897 | > 16 | 0.938 | > 10.2 | 0.78 | 5.47 | 0.97 | > 1.02
